Assay results: PubChem BioAssay AID1460 (National Center for Advancing Translational Sciences (NCATS), 2008)
About 5,800 (2.1%) of roughly 270,000 compounds were called active. The inconclusive results got no clear call from the source; some entries with a clear call stand among them for comparison. Calls follow the shape of the dose curve; as a rule, active = well fitted inhibition curve with a large enough effect; inconclusive = small, poorly fitted or top-dose-only effect; inactive = flat fitted curve, though single readings scatter. Potencies of inconclusive entries are doubtful fits and often do not repeat.

Target: Microtubule-associated protein tau (Homo sapiens) (UniProt P10636)
Experiment: qHTS for Inhibitors of Tau Fibril Formation, Thioflavin T Binding; also: nearly all actives have a fitted effect of over 55% in size
Details: recombinant tau K18 P301L (four-repeat tau fragment), heparin-induced fibrillization, ThT fluorescence; series mostly up to 57.4 µM; activity, negative = inhibition: at the top concentration
Method in brief: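 Aggregation was driven by heparin (20 uM final) acting on recombinant tau […] bearing P301L in 100 mM sodium acetate pH 7; fibrils were detected with Thioflavin T.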
% is scaled to controls: 0 for no effect and ±100 for the full control effect; potency is read from the fitted curve at half-maximal effect; tags tell the direction and shape of the fitted curve.

UniProt P10636, sequence (P10636 whole entry, looked up): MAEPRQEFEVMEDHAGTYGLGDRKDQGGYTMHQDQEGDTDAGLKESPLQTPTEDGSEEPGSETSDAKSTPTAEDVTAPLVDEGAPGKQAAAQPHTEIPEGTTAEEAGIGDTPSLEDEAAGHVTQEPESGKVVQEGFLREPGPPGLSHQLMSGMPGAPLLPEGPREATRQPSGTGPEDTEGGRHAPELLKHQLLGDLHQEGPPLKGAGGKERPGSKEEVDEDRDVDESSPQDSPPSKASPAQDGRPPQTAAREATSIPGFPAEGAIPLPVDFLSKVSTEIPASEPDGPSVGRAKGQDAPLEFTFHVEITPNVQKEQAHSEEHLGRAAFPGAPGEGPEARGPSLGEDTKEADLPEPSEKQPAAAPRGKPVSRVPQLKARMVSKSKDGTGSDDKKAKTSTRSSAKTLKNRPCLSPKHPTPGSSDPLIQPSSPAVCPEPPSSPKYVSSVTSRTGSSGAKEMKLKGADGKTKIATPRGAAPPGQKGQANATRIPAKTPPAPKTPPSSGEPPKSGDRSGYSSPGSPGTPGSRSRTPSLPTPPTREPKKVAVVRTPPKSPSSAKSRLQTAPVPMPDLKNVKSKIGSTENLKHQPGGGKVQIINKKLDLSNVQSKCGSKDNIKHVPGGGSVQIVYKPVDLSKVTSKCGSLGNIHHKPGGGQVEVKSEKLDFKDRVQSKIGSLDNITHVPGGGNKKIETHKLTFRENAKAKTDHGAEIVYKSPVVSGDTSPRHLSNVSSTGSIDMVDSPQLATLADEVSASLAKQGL

SMILES	Potency	activity, negative = inhibition
COCCCNC(=S)N/N=C/c1ccc(N(C)C)cc1	inconclusive: 14.1 µM [inhibitor, partial curve]	
Cc1sc2ncnc(Sc3nnnn3-c3ccccc3)c2c1C	inconclusive: 15.8 µM [inhibitor, partial curve]	
COc1ccc(N2CCN(C(=O)CCc3c(C)nc4cc(-c5cccc(F)c5)nn4c3C)CC2)cc1	inconclusive: 14.1 µM [inhibitor, partial curve]	
Oc1ccc2ccccc2c1C=NC1CCCCC1	active: 25.1 µM	
Cc1ccc(OCC(=O)Nc2ccc(N3CCN(C(=O)c4ccco4)CC3)cc2)cc1C	inconclusive: 4.47 µM [inhibitor, partial curve]	
CN(C)c1ccc(S(=O)(=O)NCC(=O)OCC(=O)Nc2cc(Cl)cc(Cl)c2)cc1[N+](=O)[O-]	active: 28.2 µM	
CCOc1cc(C2NC(=O)c3c(sc4c3CCN(C)C4)N2)ccc1OC(=O)c1ccc(F)cc1 (configuration not stated)	inconclusive: 12.6 µM [inhibitor, partial curve, poor fit]	
Cc1[nH]n(C(N)=S)c(=O)c1C(c1ccccc1)C(C#N)C#N (configuration not stated)	inconclusive: 39.8 µM [inhibitor, single point]	
Cc1ccsc1/C=C1/C(=O)NN(c2ccccc2)C1=O	inconclusive: 12.6 µM [inhibitor, partial curve]	
COc1cc(/C=C2\CC/C(=C\c3cc(OC)c(OC)c(OC)c3)C2=O)cc(OC)c1OC		inactive: -16.6%
CSc1ccccc1-n1nnnc1SCC(=O)Nc1ccccc1C		inactive: -10.3%
Cc1ccc(-c2noc(CSc3nnnn3C3CCCCC3)n2)cc1	inconclusive: 31.6 µM [inhibitor, partial curve]	
O=C(NC(=S)Nc1ccc(O)cc1)c1ccccc1Cl		inactive: -14.8%
COc1cc(NC(=O)c2cc3cc4cc(OC)ccc4nc3o2)cc(OC)c1	inconclusive: 1.58 µM [inhibitor, full curve]	
CC(C)(C)C(=O)NC(Nc1cccc2cccnc12)C(Cl)(Cl)Cl (configuration not stated)	inconclusive: 28.2 µM [inhibitor, single point]	
COc1cccc(-c2cc(C(=O)Nc3cc(C)on3)no2)c1	inconclusive: 1.12 µM [inhibitor, full curve, poor fit]	
Cc1ccc(C)c2sc(NC(=O)c3ccc(N4C(=O)CCC4=O)cc3)nc12		inactive: -2.37%
NC(=O)CC(NC(=O)Cc1ccc(Br)cc1)c1ccc(NC2CCC2)c([N+](=O)[O-])c1 (configuration not stated)	inconclusive: 12.6 µM [inhibitor, partial curve]	
COc1ccc(C2=C(C(C)=O)Sc3nnc(-c4ccccc4)n3N2C(C)=O)cc1	inconclusive: 12.6 µM [inhibitor, partial curve]	
CCCc1[nH]nc2c1C(c1cn[nH]c1-c1ccc(F)cc1)C(C#N)=C(N)O2 (configuration not stated)	inconclusive: 22.4 µM [inhibitor, single point]	
O=C(Cn1c(=O)n(Cc2ccco2)c(=O)c2sc3ccccc3c21)Nc1ccccc1C(F)(F)F		inactive: 4.88%
Cc1ccccc1OCCn1nc(C(=O)O)c2ccccc2c1=O	inconclusive: 22.4 µM [inhibitor, single point]	
Cc1nn(-c2ccccc2)c(Cl)c1/C=N/Nc1ccc(S(=O)(=O)Nc2ccccc2C(=O)O)cc1[N+](=O)[O-]	active: 8.91 µM	
O=C1c2ccccc2-c2cccc(C(=O)N3CCCCC3)c21		inactive: -6.67%

SMILES	Potency	activity, negative = inhibition
Cc1nc2oc(C(=O)c3ccccc3)c(N)c2c2c1COC(C)(C)C2		inactive: -16.4%
O=C(CC1N=C2c3ccccc3N=C(SCc3cccc(F)c3)N2C1=O)NC1CCCCC1 (configuration not stated)	inconclusive: 35.5 µM [inhibitor, single point]	
O=S(=O)(Nc1cccc(-c2ccc(N3CCCCC3)nn2)c1)c1ccc(F)cc1F	inconclusive: 39.8 µM [inhibitor, single point]	
S=c1[nH]nc(-c2ccccn2)n1/N=C/c1ccc(Cl)cc1		inactive: -7.21%
CC12CCC(C(=O)NCc3ccc4c(c3)OCO4)(OC1=O)C2(C)C (configuration not stated)		inactive: -5.74%
CCCNC(=O)OC[C@@H]1O[C@H](CCO/N=C(\C)CCN2CCc3nc(-c4ccccc4)c(-c4ccccc4)cc3C2)C=C[C@@H]1Oc1ccc(OC)cc1		inactive: -8.32% [at 11.5 µM]
O=C(Nc1nnc(-c2cccs2)s1)C1CC1		inactive: -1.09%
O=[N+]([O-])c1ccc(-c2c[nH]c(=S)[nH]2)cc1	active: 25.1 µM	
CC(C)CNc1cc(NC2CCCCC2)c2c3c(onc13)-c1ccccc1C2=O	inconclusive: 25.1 µM [inhibitor, partial curve]	
CCCc1nc(SCC(=O)N2CCCc3ccccc32)c2c(=O)n(C)c(=O)n(C)c2n1	inconclusive: 17.8 µM [inhibitor, partial curve]	
COc1ccccc1C1C(C(C)=O)=C(C)N=c2s/c(=C\c3cc(OC)c(OC)c(OC)c3)c(=O)n21 (configuration not stated)	inconclusive: 12.6 µM [inhibitor, partial curve]	
Cc1cccc(N=c2oc3cc(O)ccc3cc2C(N)=O)c1	inconclusive: 20 µM [inhibitor, single point]	
Cc1cccc(OCC(=O)Nc2cccc(-c3nc4ccccc4s3)c2)c1	inconclusive: 0.562 µM [inhibitor, full curve, poor fit]	
CC(=O)c1cc(-c2ccc(F)cc2)n(CCC(=O)NC2CCCCC2)c1C		inactive: -17.3%
COC(=O)c1c(-c2ccc(C)cc2)csc1NC(=S)NC(=O)c1cc(OC)cc(OC)c1		inactive: 13.1%
CC(C)(C)c1cc(NCCCn2ccnc2)n2ncc(-c3ccc(Cl)cc3)c2n1	inconclusive: 20 µM [inhibitor, partial curve]	
COC(=O)c1ccc(C(NC(=O)OCc2ccccc2)/C(C)=C/[C@@H](C)C(=O)NCc2nc3ccccc3s2)cc1 (some centres not stated)		inactive: -16.7%
Cc1c(N)cccc1-c1nc2ccccc2[nH]1		inactive: 16%
COC(=O)c1sc2ccccc2c1S(=O)(=O)N1CCN(c2ccc(C(C)=O)cc2)CC1	inconclusive: 17.8 µM [inhibitor, single point]	
COc1cc(NC(=O)c2cccnc2)ccc1-c1cc2ccccc2oc1=O	inconclusive: 35.5 µM [inhibitor, single point]	
CCCCCOc1ccc(NC(=O)CSc2cccc3cccnc23)cc1	inconclusive: 3.16 µM [inhibitor, partial curve]	
Cc1ccccc1-c1cc(C(=O)Nc2sc(C(=O)OC(C)C)c(C)c2C#N)c2ccccc2n1	inconclusive: 11.2 µM [inhibitor, partial curve]	
Cn1c(N=Nc2ccc(N3CCOCC3)cc2)[n+](C)c2ccccc21	active: 1 µM	
CCOC(=O)NC(=O)COC(=O)CCCSc1nc2ccccc2s1	inconclusive: 14.1 µM [inhibitor, partial curve]	

SMILES	Potency	activity, negative = inhibition
Cn1cc(Br)c(-c2cccc(NC(=O)CCCC(=O)O)c2)n1		inactive: -2.88%
O=C(NC1CCCC1)C(c1ccc(F)cc1)N(Cc1ccc(F)cc1)C(=O)c1ccn[nH]1 (configuration not stated)		inactive: -0.99%
Cc1cc(NC(=O)CN2CCC(O)CC2)nc2c1c(=O)oc1ccccc12		inactive: -9.11%
COC(=O)CCC(=O)Nc1ccc(N=Nc2ccccc2)cc1	active: 11.2 µM	
CCOC(=O)c1cc(CC)sc1NC(=O)COc1ccccc1C		inactive: 0.201%
COc1ccc(NC(=O)CSc2c(C(C)C)cnc3c2c(=O)n(C)c(=O)n3C)c(OC)c1		inactive: -1.09%
O=c1cc(-c2ccccc2)[nH]n1-c1nc2ccccc2s1	inconclusive: 15.8 µM [inhibitor, partial curve]	
COc1cc(-c2noc(CCCC(=O)NCc3ccco3)n2)cc(OC)c1OC		inactive: 2.85%
CCn1c(=O)n(CC2CCC(C(=O)NC(C)C)CC2)c(=O)c2sccc21 (configuration not stated)		inactive: -6.87%
COc1ccc(NC(=O)C(=O)N2N=C3CCCCC3C2(O)C(F)(F)F)cc1 (configuration not stated)		inactive: -5.27%
COc1ccc(C(=O)Oc2ccc(C3NC(=O)c4c(sc5c4CCN(C)C5)N3)cc2OC)cc1 (configuration not stated)	active: 3.98 µM	
Cc1ccc(C(=O)NC(=S)Nc2cccc(-c3nc4ccccc4s3)c2)cc1	inconclusive: 1.41 µM [inhibitor, full curve]	
COc1ccc(-c2nnc(SCc3ccccc3)n2N)cc1		inactive: -8.82%
Cc1ccc(C(c2nnnn2C2CCCC2)N2c3ccccc3CC2C)cc1 (configuration not stated)		inactive: -9.06%
Cc1cc(C)cc(OCC(=O)N2N=C(C(F)(F)F)CC2(O)C(C)(C)C)c1 (configuration not stated)		inactive: -15.8%
Cc1ccc(C2=NN=C(NC(=O)C(F)(F)F)SC2)cc1	inconclusive: 28.2 µM [inhibitor, partial curve]	
NC(=O)c1ccc(N2CCN(c3ncc(C(F)(F)F)cc3Cl)CC2)cc1	inconclusive: 0.0631 µM [inhibitor, full curve, poor fit]	
CCCn1c(-c2ccc(F)cc2)nc2c(NCCCN(C)C)nc(C)nc21		inactive: -13.4%
CCn1c(SCc2nc(-c3ccc(Cl)cc3)no2)nnc1-c1ccco1	inconclusive: 15.8 µM [inhibitor, partial curve]	
O=C(N/N=C1\CCCc2ccccc21)c1cccc([N+](=O)[O-])c1	inconclusive: 22.4 µM [inhibitor, partial curve]	
Cc1[nH]c2ccccc2c1C(=O)CN1CCCC1	inconclusive: 22.4 µM [inhibitor, single point]	
COc1ccc(OCC(=O)NNc2nc3ccccc3s2)cc1	inconclusive: 35.5 µM [inhibitor, partial curve]	
O=c1oc2cc(Oc3ccc(C(F)(F)F)cc3[N+](=O)[O-])ccc2c2c1CCCC2	inconclusive: 25.1 µM [inhibitor, single point]	
Cc1cnc(NC(=O)c2ccc(-c3nc4ccccc4s3)o2)s1	inconclusive: 4.47 µM [inhibitor, partial curve]	
